# Measurements: the supplement of paper PMC8728848
# The list shows a part of the results.
# B1: FimA-N1 (Actinomyces oris) (protein)
# chain: MHHHHHHSSGVDLGTENLYFQSNATETPNYGNIKTDATGSLVIHKHLTGGGKDIGTPTGTAQNADDKGPAVEGVVFTAYPITDINLKDPAGWDTISNLSRTGVPDSACANPAAPTLGAHQFGTPKVSPATTKEGLATITEMPVQAYLVCETTTPGDIVQKAKPFVVTIPHPNTAAGADGQWIYDVNVYPKNEAIDVDKTIQAQK
# Legend:
# Test in all cases: glycan array binding signal (z-score within array); higher = stronger binding
# Conditions in all cases: glycan notation: IUPAC condensed, linker removed
# [1] = target: Gal(b1-4)GlcNAc(b1-3)Gal(b1-4)GlcNAc(b1-6)[Gal(b1-3)]GalNAc
# Method in brief: (§1)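 Arrays were curated from the Consortium for Functional Glycomics database, 3228 in total, and kept only where the protein sequence was available. Binding is expressed as a within-array Z-score. This score was averaged across arrays of the same protein sequence at different concentrations or buffers and across linkers, and negative values can be read as non-binding.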
# [2] = target: Gal(b1-4)GlcNAc(b1-3)Gal(b1-4)[Fuc(a1-3)]GlcNAc(b1-3)Gal(b1-4)[Fuc(a1-3)]GlcNAc
# Method in brief: as §1
# [3] = target: Gal(b1-4)GlcNAc(b1-3)GalNAc
# Method in brief: as §1
# [4] = target: Gal(b1-4)GlcNAc(b1-3)[Fuc(a1-3)GlcNAc(b1-6)]Gal(b1-4)Glc
# Method in brief: as §1
# [5] = target: Gal(b1-4)GlcNAc(b1-3)[Gal(b1-4)GlcNAc(b1-6)]Gal(b1-4)GlcNAc
# Method in brief: as §1
# [6] = target: Gal(b1-4)GlcNAc(b1-3)[GlcNAc(b1-6)]Gal(b1-4)GlcNAc
# Method in brief: as §1
# [7] = target: Gal(b1-4)GlcNAc(b1-6)Gal(b1-4)GlcNAc
# Method in brief: as §1
# [8] = target: Gal(b1-4)GlcNAc(b1-6)GalNAc
# Method in brief: as §1
# [9] = target: Gal(b1-4)GlcNAc(b1-6)[Gal(b1-3)]GalNAc
# Method in brief: as §1
# [10] = target: Gal(b1-4)GlcNAc(b1-6)[Gal(b1-4)GlcNAc(b1-3)]GalNAc
# Method in brief: as §1
# Gal(b1-4)GlcNAc6P = target: Gal(b1-4)GlcNAc6P
# Method in brief: as §1
# Gal(b1-6)Gal = target: Gal(b1-6)Gal
# Method in brief: as §1
# Gal3S(b1-3)GalNAc = target: Gal3S(b1-3)GalNAc
# Method in brief: as §1
# Gal3S(b1-3)GlcNAc = target: Gal3S(b1-3)GlcNAc
# Method in brief: as §1
# [11] = target: Gal3S(b1-3)[Fuc(a1-4)]GlcNAc
# Method in brief: as §1
# Gal3S(b1-4)Glc = target: Gal3S(b1-4)Glc
# Method in brief: as §1
# Gal3S(b1-4)Glc6S = target: Gal3S(b1-4)Glc6S
# Method in brief: as §1
# Gal3S(b1-4)GlcNAc = target: Gal3S(b1-4)GlcNAc
# Method in brief: as §1
# [12] = target: Gal3S(b1-4)[Fuc(a1-3)]Glc6S
# Method in brief: as §1
# [13] = target: Gal3S(b1-4)[Fuc(a1-3)]GlcNAc
# Method in brief: as §1
# [14] = target: Gal3S(b1-4)[Fuc(a1-3)]GlcNAc6S
# Method in brief: as §1
# Gal3S4S(b1-4)GlcNAc = target: Gal3S4S(b1-4)GlcNAc
# Method in brief: as §1
# Gal3S6S(b1-4)GlcNAc = target: Gal3S6S(b1-4)GlcNAc
# Method in brief: as §1
# Gal3S6S(b1-4)GlcNAc6S = target: Gal3S6S(b1-4)GlcNAc6S
# Method in brief: as §1
# Gal4S(b1-4)GlcNAc = target: Gal4S(b1-4)GlcNAc
# Method in brief: as §1
# Gal4S6S(b1-4)GlcNAc = target: Gal4S6S(b1-4)GlcNAc
# Method in brief: as §1
# Gal6P(b1-4)GlcNAc = target: Gal6P(b1-4)GlcNAc
# Method in brief: as §1
# Gal6S(b1-3)GlcNAc = target: Gal6S(b1-3)GlcNAc
# Method in brief: as §1
# Gal6S(b1-3)GlcNAc6S = target: Gal6S(b1-3)GlcNAc6S
# Method in brief: as §1
# Gal6S(b1-4)Glc = target: Gal6S(b1-4)Glc
# Method in brief: as §1
# Gal6S(b1-4)Glc6S = target: Gal6S(b1-4)Glc6S
# Method in brief: as §1
# Gal6S(b1-4)GlcNAc = target: Gal6S(b1-4)GlcNAc
# Method in brief: as §1
# Gal6S(b1-4)GlcNAc6S = target: Gal6S(b1-4)GlcNAc6S
# Method in brief: as §1
# GalNAc(a1-3)Gal = target: GalNAc(a1-3)Gal
# Method in brief: as §1
# GalNAc(a1-3)GalNAc = target: GalNAc(a1-3)GalNAc
# Method in brief: as §1
# [15] = target: GalNAc(a1-3)GalNAc(b1-3)Gal(a1-4)Gal(b1-4)Glc
# Method in brief: as §1
# [16] = target: GalNAc(a1-3)GalNAc(b1-3)Gal(a1-4)Gal(b1-4)GlcNAc
# Method in brief: as §1
# GalNAc(b1-3)Gal = target: GalNAc(b1-3)Gal
# Method in brief: as §1
# [17] = target: GalNAc(b1-3)Gal(a1-4)Gal(b1-4)GlcNAc
# Method in brief: as §1
# [18] = target: GalNAc(b1-3)Gal(a1-4)Gal(b1-4)GlcNAc(b1-3)Gal(b1-4)Glc
# Method in brief: as §1
# [19] = target: GalNAc(b1-3)Gal(a1-6)Gal(b1-4)Glc
# Method in brief: as §1
# GalNAc(b1-3)GalNAc = target: GalNAc(b1-3)GalNAc
# Method in brief: as §1
# GalNAc(b1-3)GlcNAc = target: GalNAc(b1-3)GlcNAc
# Method in brief: as §1
# GalNAc(b1-4)Gal(b1-4)Glc = target: GalNAc(b1-4)Gal(b1-4)Glc
# Method in brief: as §1
# GalNAc(b1-4)GlcNAc = target: GalNAc(b1-4)GlcNAc
# Method in brief: as §1
binder,measurement,setting,value
B1,glycan array binding signal (z-score),[1],-0.24
same,glycan array binding signal (z-score),[2],-0.434
same,glycan array binding signal (z-score),[3],0.025
same,glycan array binding signal (z-score),[4],-0.38
same,glycan array binding signal (z-score),[5],-0.398
same,glycan array binding signal (z-score),[6],-0.117
same,glycan array binding signal (z-score),[7],0.067
same,glycan array binding signal (z-score),[8],0.16
same,glycan array binding signal (z-score),[9],-0.133
same,glycan array binding signal (z-score),[10],-0.079
same,glycan array binding signal (z-score),Gal(b1-4)GlcNAc6P,0.125
same,glycan array binding signal (z-score),Gal(b1-6)Gal,0.276
same,glycan array binding signal (z-score),Gal3S(b1-3)GalNAc,0.644
same,glycan array binding signal (z-score),Gal3S(b1-3)GlcNAc,-0.055
same,glycan array binding signal (z-score),[11],0.165
same,glycan array binding signal (z-score),Gal3S(b1-4)Glc,0.253
same,glycan array binding signal (z-score),Gal3S(b1-4)Glc6S,3.06
same,glycan array binding signal (z-score),Gal3S(b1-4)GlcNAc,-0.163
same,glycan array binding signal (z-score),[12],1.9
same,glycan array binding signal (z-score),[13],0.524
same,glycan array binding signal (z-score),[14],7.57
same,glycan array binding signal (z-score),Gal3S4S(b1-4)GlcNAc,-0.215
same,glycan array binding signal (z-score),Gal3S6S(b1-4)GlcNAc,0.164
same,glycan array binding signal (z-score),Gal3S6S(b1-4)GlcNAc6S,-0.388
same,glycan array binding signal (z-score),Gal4S(b1-4)GlcNAc,-0.299
same,glycan array binding signal (z-score),Gal4S6S(b1-4)GlcNAc,0.072
same,glycan array binding signal (z-score),Gal6P(b1-4)GlcNAc,-0.222
same,glycan array binding signal (z-score),Gal6S(b1-3)GlcNAc,-0.523
same,glycan array binding signal (z-score),Gal6S(b1-3)GlcNAc6S,-0.186
same,glycan array binding signal (z-score),Gal6S(b1-4)Glc,-0.204
same,glycan array binding signal (z-score),Gal6S(b1-4)Glc6S,-0.182
same,glycan array binding signal (z-score),Gal6S(b1-4)GlcNAc,0.396
same,glycan array binding signal (z-score),Gal6S(b1-4)GlcNAc6S,-0.441
same,glycan array binding signal (z-score),GalNAc(a1-3)Gal,-0.249
same,glycan array binding signal (z-score),GalNAc(a1-3)GalNAc,-0.475
same,glycan array binding signal (z-score),[15],-0.284
same,glycan array binding signal (z-score),[16],0.084
same,glycan array binding signal (z-score),GalNAc(b1-3)Gal,-0.253
same,glycan array binding signal (z-score),[17],0.521
same,glycan array binding signal (z-score),[18],-0.399
same,glycan array binding signal (z-score),[19],-0.352
same,glycan array binding signal (z-score),GalNAc(b1-3)GalNAc,-0.3
same,glycan array binding signal (z-score),GalNAc(b1-3)GlcNAc,-0.122
same,glycan array binding signal (z-score),GalNAc(b1-4)Gal(b1-4)Glc,0.901
same,glycan array binding signal (z-score),GalNAc(b1-4)GlcNAc,-0.187
